Consider 86 sequences from the supplement of paper PMC3334620.

In all, about 33,000 sequences were measured (“E-score (-0.5 to 0.5)”: median about -0.041, highest 2% from about 0.37 on). The list shows a part of the results.

The assay concerns the target T1, Ecm22 (UniProt Q05958).
T1 sequence: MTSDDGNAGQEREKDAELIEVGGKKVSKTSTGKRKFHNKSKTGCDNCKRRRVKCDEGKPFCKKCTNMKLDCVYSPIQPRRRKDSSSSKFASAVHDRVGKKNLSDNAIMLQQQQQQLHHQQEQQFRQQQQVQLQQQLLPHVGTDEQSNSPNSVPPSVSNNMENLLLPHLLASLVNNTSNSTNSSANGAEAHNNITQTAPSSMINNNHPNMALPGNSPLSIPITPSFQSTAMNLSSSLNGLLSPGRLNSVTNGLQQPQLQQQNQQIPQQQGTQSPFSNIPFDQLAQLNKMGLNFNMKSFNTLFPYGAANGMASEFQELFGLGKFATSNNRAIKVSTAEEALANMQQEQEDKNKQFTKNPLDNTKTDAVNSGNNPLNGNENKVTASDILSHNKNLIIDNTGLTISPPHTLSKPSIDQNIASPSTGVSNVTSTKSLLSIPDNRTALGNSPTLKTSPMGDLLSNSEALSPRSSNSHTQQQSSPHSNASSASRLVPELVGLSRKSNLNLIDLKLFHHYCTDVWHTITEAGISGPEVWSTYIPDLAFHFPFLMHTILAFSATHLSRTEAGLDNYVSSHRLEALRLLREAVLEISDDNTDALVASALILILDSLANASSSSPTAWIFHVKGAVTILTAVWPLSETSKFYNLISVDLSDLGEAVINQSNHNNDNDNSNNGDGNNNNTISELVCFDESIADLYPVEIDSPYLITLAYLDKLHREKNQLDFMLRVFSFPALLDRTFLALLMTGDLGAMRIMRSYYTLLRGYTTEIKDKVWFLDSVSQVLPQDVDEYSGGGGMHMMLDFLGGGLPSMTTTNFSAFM
The experiment in a line: PBM E-score (8-mer binding enrichment) (E-score (-0.5 to 0.5)); higher = stronger / more preferred TF binding; most listed sequences are background and not binding sites. The settings on record: protein concentration: 200 nM; construct: GST-full length. In short, it runs like this: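 Yeast transcription factors carrying a GST tag, as full-length proteins or DNA-binding domains, were produced by PURExpress in vitro transcription/translation. About 100-200 nM protein was applied to universal all-10-mer Agilent arrays, double-stranded by primer extension on fresh or once-stripped slides. Bound protein was detected with fluorescent anti-GST, and scans were normalised with masliner. The Universal PBM Analysis Suite gave each ungapped eight-base word, pooled with its reverse complement, an E-score, a modified Wilcoxon-Mann-Whitney statistic.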
As for ATAAATGC, the “PBM E-score” value was -0.164.

In the case of CTTGTGCC, the “PBM E-score” value is -0.148.

In the case of ACCTTTCT, the “PBM E-score” value is -0.00148.

Turning to GGGATTAC, the “PBM E-score” value is -0.077.

As for GTCATCCA, the “PBM E-score” value was -0.259.

As for ATTCGGCC, the “PBM E-score” value is -0.0473.

Turning to TATGCATA, the “PBM E-score” value was -0.287.

As for TGGTTAAA, the “PBM E-score” value came to 0.0541.

Regarding CTCAGAGA, the “PBM E-score” value is -0.116.

Consider CATTTAGA, for which the “PBM E-score” value was -0.0541.

For the sequence ACTTTCCA, the “PBM E-score” value is -0.205.

In the case of CGCACATC, the “PBM E-score” value came out at 0.154.

Consider CTCTCGTC, for which the “PBM E-score” value came to 0.0625.

As to ATATCGTG, the “PBM E-score” value was found to be 0.147.

With AATGGCCG, the “PBM E-score” value is -0.129.

Turning to AAGGAACA, the “PBM E-score” value was -0.175.

For the sequence GAAGTGCC, the “PBM E-score” value is -0.0811.

In the case of ACCATTCC, the “PBM E-score” value is -0.0508.

ACGGACAG: the “PBM E-score” value is 0.0603.

As for GAGCCGGA, the “PBM E-score” value was -0.0216.

AGCAAGGG: the “PBM E-score” value was -0.15.

For CTTTGTAA, the “PBM E-score” value worked out at 0.0224.

For the sequence AAAGAACG, the “PBM E-score” value was determined as 0.232.

For the sequence AACGTACC, the “PBM E-score” value was found to be 0.297.

On to CGTTGGAA, for which the “PBM E-score” value was found to be 0.0549.

Consider AGTAACCG, for which the “PBM E-score” value was 0.109.

CCTCCCCA: the “PBM E-score” value was -0.196.

On to AACATTGC, for which the “PBM E-score” value is -0.111.

On to CGTAGGGA, for which the “PBM E-score” value is -0.0369.

For AACTCAGC, the “PBM E-score” value is -0.175.

In the case of CAATGAAA, the “PBM E-score” value is -0.155.

Take ATAGTGTA: the “PBM E-score” value is -0.0539.

On to GGGATACC, for which the “PBM E-score” value is -0.115.

In the case of CACAAGAA, the “PBM E-score” value is -0.0424.

AAGCAAAC: the “PBM E-score” value came to 0.204.

For the sequence AGTTTTCA, the “PBM E-score” value is -0.0527.

Turning to AAGCTTCT, the “PBM E-score” value was determined as 0.0794.

Turning to AGGATGGG, the “PBM E-score” value is 0.0518.

Take ACGCGAGT: the “PBM E-score” value was 0.241.

As to GGTCGACA, the “PBM E-score” value stood at 0.0742.

In the case of CATAGCAG, the “PBM E-score” value was -0.207.

With AGGTCTAG, the “PBM E-score” value is -0.112.

Take AGATATAG: the “PBM E-score” value came out at 0.0596.

As to GATACCAC, the “PBM E-score” value was -0.0172.

Turning to ACGAGCTC, the “PBM E-score” value was 0.39.

As to TGTCTGAA, the “PBM E-score” value was -0.0279.

ATCTTATA: the “PBM E-score” value amounted to 0.128.

Turning to CCCAGATA, the “PBM E-score” value was -0.266.

Regarding ATTGACCG, the “PBM E-score” value was 0.089.

Regarding CAACGCGG, the “PBM E-score” value was 0.0446.

Regarding ACAGCCGC, the “PBM E-score” value was -0.132.

As to ACCATTCA, the “PBM E-score” value was -0.291.

As to GGTGCGAA, the “PBM E-score” value amounted to 0.275.

Regarding TCGACACA, the “PBM E-score” value worked out at 0.0861.

For the sequence ATAGAGTA, the “PBM E-score” value came to 0.0185.

On to GAACACGA, for which the “PBM E-score” value was 0.156.

Take ACAAGCCG: the “PBM E-score” value is -0.0164.

Consider AAGATAGT, for which the “PBM E-score” value is 0.0345.

For GGTTCAAC, the “PBM E-score” value came out at 0.143.

Turning to GGGGCGTA, the “PBM E-score” value worked out at 0.0407.

For the sequence CACTACCG, the “PBM E-score” value is -0.224.

On to CCGGCTGA, for which the “PBM E-score” value is -0.0516.

As to ACTTTGTC, the “PBM E-score” value is -0.00755.

With CCAGCTCA, the “PBM E-score” value is -0.144.

In the case of CCAAGCCA, the “PBM E-score” value is -0.169.

Regarding TCGTACAA, the “PBM E-score” value stood at 0.49.

AAGAAAAG: the “PBM E-score” value was -0.233.

Regarding CACTACTG, the “PBM E-score” value was -0.283.

As to GAAGGCCA, the “PBM E-score” value is -0.246.

As to AATAACAA, the “PBM E-score” value was -0.0956.

Regarding CTGCCCCA, the “PBM E-score” value was -0.065.

Take ATCGGGTG: the “PBM E-score” value came to 0.0998.

As for ATACACGC, the “PBM E-score” value was 0.0228.

As for GAAACTAA, the “PBM E-score” value was -0.0632.

Turning to GCTATGAA, the “PBM E-score” value is -0.0335.

AACACAAT: the “PBM E-score” value was -0.00044.

For the sequence GTCCAGTA, the “PBM E-score” value was -0.113.

As for ATTGTACG, the “PBM E-score” value was 0.431.

For AATGTGCT, the “PBM E-score” value was determined as 0.00418.

With TCCGGTCA, the “PBM E-score” value is -0.0673.

As for CTGGCATC, the “PBM E-score” value was -0.132.

As to ACGCTTTC, the “PBM E-score” value is -0.159.

AGGGCCTA: the “PBM E-score” value was -0.26.

As for AAGGTATC, the “PBM E-score” value is -0.125.

With CTATGGTC, the “PBM E-score” value is -0.017.

In the case of CTGGCGTA, the “PBM E-score” value was found to be 0.0704.
